Measured values as given in PubChem BioAssay AID602310 (National Center for Advancing Translational Sciences (NCATS), 2012).
Hit rate of the full screen: of about 410,000 compounds, about 310 (0.076%) were called active. The inconclusive results got no clear call from the source; some entries with a clear call stand among them for comparison. Calls follow the shape of the dose curve; as a rule, active = well fitted curve in the direction sought with a large enough effect; inconclusive = small, poorly fitted or top-dose-only effect; inactive = flat fitted curve, though single readings scatter. Potencies of inconclusive entries are doubtful fits and often do not repeat.

Target: DNA dC->dU-editing enzyme APOBEC-3G (Homo sapiens) (UniProt Q9HC16)
Assay: qHTS for Inhibitors of Vif-A3G Interactions: qHTS; also: nearly all actives have a fitted effect of over 60% in size
Details: HeLa A3G-eYFP + Vif (tagged APOBEC3G with the HIV-1 protein that degrades it), YFP fluorescence, overnight; series mostly up to 46.1 µM
Outline: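 Read-out is eYFP fluorescence (Ex 488/Em 500-530) from Vif-expressing HeLa A3G-eYFP cells; more signal means A3G escaped Vif-mediated degradation. Cells plated overnight, compound pinned in, incubated overnight at 37 deg C.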
Potency is read from the fitted curve at half-maximal effect; tags tell the direction and shape of the fitted curve.

Chain of UniProt Q9HC16 (Q9HC16 whole entry, looked up): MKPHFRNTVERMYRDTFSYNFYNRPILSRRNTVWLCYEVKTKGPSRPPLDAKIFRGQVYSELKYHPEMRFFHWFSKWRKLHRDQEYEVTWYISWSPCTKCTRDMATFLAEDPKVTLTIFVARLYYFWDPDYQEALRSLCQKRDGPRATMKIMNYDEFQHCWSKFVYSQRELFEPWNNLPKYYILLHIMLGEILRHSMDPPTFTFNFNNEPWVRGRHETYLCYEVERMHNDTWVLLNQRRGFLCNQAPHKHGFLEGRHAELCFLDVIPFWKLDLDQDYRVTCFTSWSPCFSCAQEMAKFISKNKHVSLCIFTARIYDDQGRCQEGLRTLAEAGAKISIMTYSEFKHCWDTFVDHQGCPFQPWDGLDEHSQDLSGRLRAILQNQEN

**Q.** With `CC(C)(C)n1ncc2c(=O)n(Cc3ccc(SC(F)(F)F)cc3)cnc21` as the molecule, how does the Potency read?
**A.** The Potency was “inactive”.

**Q.** With `O=C(C(=O)N1CCN(c2ccccc2Cl)CC1)c1c[nH]c2ccccc12` as the molecule, how does the Potency read?
**A.** The Potency was inconclusive: 12.6 µM [inhibitor, partial curve, poor fit].

**Q.** `COc1ccccc1C(C)NC(=O)c1ccc(C)o1` (configuration not stated) was tested. Which Potency did it give?
**A.** Its Potency is inconclusive: 35.5 µM [inhibitor, single point].

**Q.** Which Potency does the source give for `O=C(O)c1csc(-n2nc(-c3ccccc3)cc2C(F)(F)F)n1` here?
**A.** Its Potency is “inactive”.

**Q.** Which Potency does the source give for `O=[N+]([O-])c1cc(Cl)c(O)c2ncccc12` here?
**A.** Its Potency is “inactive”.

**Q.** With `COc1cccc(N2CCN(C(=O)c3[nH]c(C)c(C(C)=O)c3C)CC2)c1` as the molecule, how does the Potency read?
**A.** Its Potency is inconclusive: 6.31 µM [inhibitor, partial curve, poor fit].

**Q.** With `CCOC(=O)C1(CC2CCCCO2)CCN(C(=O)Nc2cccc(SC)c2)CC1` (configuration not stated) as the molecule, how does the Potency read?
**A.** Its Potency is “inactive”.

**Q.** With `COC1=C(Br)C(=O)c2nc(C)ccc2C1=O` as the molecule, how does the Potency read?
**A.** The Potency was inconclusive: 17.8 µM [inhibitor, single point].

**Q.** Which Potency does the source give for `Cc1nc2c(C)cccc2cc1C(=O)N/N=C/c1ccc(O)cc1` here?
**A.** Its Potency is inconclusive: 7.08 µM [inhibitor, full curve].

**Q.** With `COc1ccc(-c2nn(C)c3sc(C(=O)Nc4cc(OC)c(OC)c(OC)c4)cc23)cc1OC` as the molecule, how does the Potency read?
**A.** The Potency was inconclusive: 22.4 µM [inhibitor, single point].

**Q.** Which Potency does the source give for `O=C(O)CSc1nnc(CNc2ccc(Cl)cc2)n1Cc1ccccc1` here?
**A.** Its Potency is “inactive”.

**Q.** `O=C(O)c1ccccc1N/N=C/c1cc(Br)cc(Br)c1O` was tested. Which Potency did it give?
**A.** The Potency was inconclusive: 12.6 µM [inhibitor, single point].

**Q.** For `Cc1cc(C)c2c(/C=C/c3ccc(N(C)C)cc3)ccnc2c1`, which Potency is on record?
**A.** The Potency was “inactive”.

**Q.** `CCOC(=O)CNC(=O)CSc1ncnc2c1nnn2-c1ccc(F)cc1` was tested. Which Potency did it give?
**A.** Its Potency is “inactive”.

**Q.** For `Cc1ccc(Nc2cc(C)nc3ccccc23)c(C)c1`, which Potency is on record?
**A.** The Potency was “inactive”.

**Q.** For `COc1ccc([N+](=O)[O-])c(S(=O)(=O)c2ccc(Cl)cc2)n1`, which Potency is on record?
**A.** The Potency was inconclusive: 35.5 µM [inhibitor, single point].

**Q.** `NS(=O)(=O)c1ccc(NS(=O)(=O)c2ccc(NC(=O)c3ccc(-c4ccccc4)cc3)cc2)cc1` was tested. Which Potency did it give?
**A.** Its Potency is inconclusive: 5.62 µM [inhibitor, single point].

**Q.** Which Potency does the source give for `COc1ccc(/C=C2\C(=O)NCC(=O)N2Cc2ccccc2)cc1` here?
**A.** The Potency was inconclusive: 8.91 µM [inhibitor, partial curve].

**Q.** Which Potency does the source give for `Cc1ccc(NC(=O)Cn2nnc(-c3ccccc3NC(=O)c3cccs3)n2)cc1` here?
**A.** The Potency was inconclusive: 1.58 µM [inhibitor, full curve].

**Q.** `CCOC(=O)C1=C(COC(=O)/C=C/c2ccc(OC)cc2)NC(=O)NC1C` (configuration not stated) was tested. Which Potency did it give?
**A.** The Potency was inconclusive: 8.91 µM [inhibitor, partial curve].

**Q.** With `CCO/N=C1\C(=O)N(c2ccccc2)c2ccccc21` as the molecule, how does the Potency read?
**A.** The Potency was “inactive”.

**Q.** Which Potency does the source give for `CCC(C)c1ccc(NC(=O)C2CC3CCC2C3)cc1` (configuration not stated) here?
**A.** The Potency was “inactive”.

**Q.** `COc1ccccc1/C=C/C(=O)Nc1ccc2c(c1)OCCO2` was tested. Which Potency did it give?
**A.** Its Potency is inconclusive: 7.94 µM [inhibitor, partial curve, poor fit].

**Q.** `CC(C)c1ccc(N(C(=O)c2snc(C(N)=O)c2N)C(C(=O)NCC2CCCO2)c2ccc(N(C)C)cc2)cc1` (configuration not stated) was tested. Which Potency did it give?
**A.** The Potency was “inactive”.

**Q.** With `O=C(CSc1nc2c([nH]c3ccccc32)c(=O)n1-c1cccc(Cl)c1)N1CCOCC1` as the molecule, how does the Potency read?
**A.** Its Potency is inconclusive: 35.5 µM [inhibitor, single point].

**Q.** With `CN1CC2=Cc3ccccc3OC23Oc2ccccc2C=C3C1` as the molecule, how does the Potency read?
**A.** The Potency was inconclusive: 31.6 µM [inhibitor, single point].

**Q.** With `CCOC(=O)c1c(NC(=O)CSc2cn(CCNC(=O)c3ccccc3OC)c3ccccc23)sc2c1CCC2` as the molecule, how does the Potency read?
**A.** The Potency was “inactive”.

**Q.** Which Potency does the source give for `CCOc1ccc(NS(=O)(=O)c2cc(NC(=O)c3ccc(C)cc3)ccc2Cl)cc1` here?
**A.** Its Potency is inconclusive: 1.12 µM [inhibitor, full curve, poor fit].

**Q.** Which Potency does the source give for `COc1ccc(OCC(=O)Sc2ccc(C)cc2)cc1` here?
**A.** Its Potency is “inactive”.

**Q.** How did the Potency turn out when `Cn1cc(-c2cnc3c(NC=O)cc(-c4cccc(C(F)(F)F)c4)cn23)cn1` was run?
**A.** Its Potency is inconclusive: 35.5 µM [inhibitor, single point].

**Q.** For `O=C(CCNS(=O)(=O)c1cccc2nsnc12)NCCC1=CCCCC1`, which Potency is on record?
**A.** The Potency was “inactive”.

**Q.** How did the Potency turn out when `CC1CCCN(S(=O)(=O)c2ccc(C(=O)Nc3sc4c(c3C(N)=O)CCN(C)C4)cc2)C1` (configuration not stated) was run?
**A.** Its Potency is inconclusive: 31.6 µM [inhibitor, single point].

**Q.** For `COc1ccccc1Cc1c(-c2ccco2)nc2ccc(Br)cn12`, which Potency is on record?
**A.** Its Potency is inconclusive: 17.8 µM [inhibitor, single point].

**Q.** Which Potency does the source give for `COc1cc2c(cc1OC)CN(C(=O)c1cc3ccccc3oc1=O)CC2` here?
**A.** The Potency was inconclusive: 8.91 µM [inhibitor, partial curve].

**Q.** Which Potency does the source give for `COc1ccccc1CCC(=O)OCC(=O)N1CCN(S(=O)(=O)c2ccc(C)cc2C)CC1` here?
**A.** Its Potency is inconclusive: 35.5 µM [inhibitor, single point].

**Q.** Which Potency does the source give for `CCOc1ccc(CCNC(=O)CN2C(=O)NC3(CCCCC3)C2=O)cc1OCC` here?
**A.** Its Potency is “inactive”.

**Q.** Which Potency does the source give for `COc1ccc(NC(=O)c2cc(CN3C(=O)c4ccccc4C3=O)ccc2OC)cn1` here?
**A.** The Potency was inconclusive: 7.08 µM [inhibitor, full curve, poor fit].

**Q.** With `Oc1c(Cl)cc(CN2CCOCC2)c2cccnc12` as the molecule, how does the Potency read?
**A.** Its Potency is inconclusive: 14.1 µM [inhibitor, single point].

**Q.** Which Potency does the source give for `O=C(Nc1cccc(Cl)c1)c1ccc2nc(Cc3ccccc3)oc2c1` here?
**A.** The Potency was “inactive”.

**Q.** `O=c1cc(-c2cccs2)oc2ccc(Cl)cc12` was tested. Which Potency did it give?
**A.** The Potency was “inactive”.

**Q.** `CCCCc1ccc(C(=O)Nc2ccc3nc(N(CC)CC)cc(C)c3c2)cc1` was tested. Which Potency did it give?
**A.** The Potency was “inactive”.

**Q.** With `O=c1[nH]c(=O)c2nc3c4ccccc4c4ccccc4c3nc2[nH]1` as the molecule, how does the Potency read?
**A.** The Potency was “inactive”.

**Q.** With `COc1ccc2[nH]cc(C(=O)CNc3nccs3)c2c1` as the molecule, how does the Potency read?
**A.** Its Potency is “inactive”.

**Q.** With `CC(C)(C)c1cc(C(=O)CCN2CCOCC2)cc(C(C)(C)C)c1O` as the molecule, how does the Potency read?
**A.** The Potency was “inactive”.

**Q.** For `CC(=O)Nc1cc(-c2ccc(C(=O)NC3CC3)cc2)cn2c(-c3cccc(C(C)=O)c3)cnc12`, which Potency is on record?
**A.** The Potency was inconclusive: 35.5 µM [inhibitor, single point].

**Q.** For `Cc1c(C(=O)O)sc2nc(/C=C/c3cccc(F)c3)[nH]c(=O)c12`, which Potency is on record?
**A.** Its Potency is “inactive”.

**Q.** For `COc1cc(OC)cc(C(=O)N/N=C/c2ccc(OC)c(COc3ccc4ccccc4c3)c2)c1`, which Potency is on record?
**A.** Its Potency is inconclusive: 6.31 µM [inhibitor, full curve].
